The values below come from ChEMBL document CHEMBL4888484, “Replenishing the malaria drug discovery pipeline: Screening and hit evaluation of the MMV Hit Generation Library 1 (HGL1) against asexual blood stage Plasmodium falciparum ,using a nano luciferase reporter read-out” (2022).

Hit rate of the full screen: of about 150,000 compounds, about 540 (0.36%) showed an effect of 50% or more. This is one part of the list.

This assay concerns Plasmodium falciparum. Put plainly: Primary screen in NF54 nanoGlo assay, in single point, at 2uM, 72h; a lower Z score goes with more inhibition. Particulars: timepoint 72 hour. The class given is functional, Erythrocyte.
For `Cc1cc(CN(CC(=O)O)Cc2ccc(F)c(F)c2)on1`, the % Inhibition (usually the change of the read-out against control, counted positive when it falls) amounted to 6% and the Z score is -1.17.
For `Cc1cnn(Cc2nnnn2-c2ccccc2)c1`, the “% Inhibition” value is given as -7% and the Z score was determined as 1.26.
For the compound `CCc1cc(N2CCOC[C@](O)(CN3CCCC3)C2)nc(N2CCCC2)n1`, the “% Inhibition” value was 3% and the Z score is -0.37.
As to `Cc1onc(C(=O)N[C@@H]2COCC[C@@H]2OCC2CCC2)c1CO`, the “% Inhibition” value is -1% and the Z score is given as 0.11.
With `CC(C)N(CCO)c1ccc(-c2nc(-c3ccccc3F)no2)cn1`, the “% Inhibition” value is reported as -2% and the Z score came out at 0.35.
The matching figures for `CS(=O)(=O)NCCC(=O)N1CC[C@H]1c1ccc(F)cc1`: -7% and 0.91.
Regarding `O=C(NCC1CCCC1O)Nc1ccccn1` (stereo not given), the “% Inhibition” value came to 6% and the Z score was -0.94.
On to `CC(=O)Nc1c(C)cc(NCc2ccc(-c3cccc(F)c3C)o2)cc1C`, for which the “% Inhibition” value was determined as 3% and the Z score was -0.56.
Take `CCc1cccc(OCCN(C)[C@H]2CN(Cc3ncc[nH]3)C[C@@H]2O)c1`: the “% Inhibition” value is -6% and the Z score is 0.75.
The like results for `O=C(O)[C@@H]1CCCN1S(=O)(=O)c1ccc(Br)c2ccccc12` were, in that order, -10% and 1.27.
The matching figures for `Cc1nscc1-c1nc(C2(c3ccncc3)CCC2)no1`: 2% and -0.28.
Turning to `C[C@@H](CC(=O)N1CCN(c2ncc[nH]2)CC1)c1cnn(C)c1`, the “% Inhibition” value is -1% and the Z score is on record as 0.11.
Take `CCN(CC)c1ccc(NC(=O)CCn2ccn3nc4c(c3c2=O)CCCC4)c(C)c1`: the “% Inhibition” value is reported as 7% and the Z score is given as -0.63.
In the case of `CCOC(=O)N1CCC(N2C[C@@]34C=C[C@@H](O3)[C@H](C(=O)Nc3ccc(C)cc3)[C@@H]4C2=O)CC1`, the “% Inhibition” value is reported as -13% and the Z score is 1.96.
`CCc1cc(CN2CCC3(CC2)CCN(Cc2ccoc2)C[C@@H]3CO)[nH]n1`: the “% Inhibition” value is listed as -6% and the Z score worked out at 1.1.
`CCN1CCC(NC(=O)Cc2cn(-c3ccccc3)nc2-c2ccc(Cl)cc2)CC1`: the “% Inhibition” value amounted to 1% and the Z score is given as -0.15.
The matching figures for `O=C(Nc1c(-c2ccc3c(c2)OCO3)n[nH]c1C1CC1)c1ccccc1F`: -2% and 0.32.
Take `c1cc(-c2noc(C3CCN(c4ccc5nncn5n4)CC3)n2)ccn1`: the “% Inhibition” value is 10% and the Z score is on record as -1.14.
The like results for `Cc1ccc(-n2ccnc2)c(C(=O)N2CCN(CC3CC3)CC2)c1` were, in that order, -18% and 1.49.
Take `COC(C)c1cccc(NC(=O)NC(C)C2CCC(F)(F)CC2)c1` (stereo not given): the “% Inhibition” value was 3% and the Z score is listed as -0.37.
`Cc1nccn1C[C@H]1CCCN(Cc2nc(C)n3ccccc23)C1`: the “% Inhibition” value was 7% and the Z score is reported as -0.92.
In the case of `CC1(C)CC(NC(=O)c2cc(C(C)(C)C)nc(=O)[nH]2)CC(C)(C)C1`, the “% Inhibition” value is given as -9% and the Z score came out at 1.5.
In the case of `C[C@]1(O)CCN(Cc2cc(F)ccc2C(F)(F)F)C[C@@H]1O`, the “% Inhibition” value is listed as -9% and the Z score was 1.85.
In the case of `Cc1cnc2c(C(=O)N3CCC(CN4CCNC4=O)CC3)cnn2c1`, the “% Inhibition” value was -7% and the Z score stood at 0.92.
The matching figures for `c1ccc(CCCN2CCC[C@H](CN3CCOCC3)C2)cc1`: -12% and 1.
`Cc1cc(-c2nc(C3CCOCC3)nn2Cc2ccccc2C)c(C)o1`: the “% Inhibition” value is -9% and the Z score was 0.99.
`Cc1cc2nc(-c3cc4n(n3)CCN(C(=O)[C@@H]3CC=CCC3)C4)[nH]c2cc1C`: the “% Inhibition” value is -6% and the Z score worked out at 0.76.
In the case of `CCOC(=O)CNC(=O)N1CCN(Cc2nc3cc(-c4ccccc4)ccc3o2)CC1`, the “% Inhibition” value is listed as -15% and the Z score is recorded as 1.94.
For `C[C@H](O)CN(C(=O)Nc1ccccc1N(C)C)C1CCCCC1`, the “% Inhibition” value was -11% and the Z score turned out to be 1.41.
The matching figures for `CCOC(=O)N1CCC2(CC1)N=C(c1ccc(OCC)cc1)C[C@@H](c1cc(Cl)ccc1O)N2`: -6% and 0.71.
In the case of `O=C(Nc1nnc(Cc2ccc(F)cc2)o1)c1sc2ccccc2c1Cl`, the “% Inhibition” value was -2% and the Z score is 0.27.
`Nc1nnc(CCNC(=O)c2onc3ccccc23)s1`: the “% Inhibition” value is on record as 9% and the Z score is -1.88.
Take `COC(=O)C1CCCC1C(=O)OCc1scnc1C` (stereo not given): the “% Inhibition” value is -1% and the Z score is 0.15.
The matching figures for `COc1cccc(CN2CCC[C@@]3(CCN(Cc4ccc(C)o4)C3)C2=O)c1`: -9% and 1.35.
As for `O=C(C[C@H]1C(=O)NCCN1Cc1ccc2ccccc2c1)NC1CCCC1`, the “% Inhibition” value was -3% and the Z score amounted to 0.63.
The matching figures for `COc1ccnc(Cn2c(=O)ccc3ccccc32)c1`: -1% and 0.13.
On to `CC(C)[C@@H](NC(=O)c1ccc(Cl)s1)C(=O)NCc1nnc[nH]1`, for which the “% Inhibition” value is reported as -8% and the Z score worked out at 0.94.
With `CC1(C)CS(=O)(=O)N(c2cccc(C(=O)Nc3ccc4c(c3)OCCO4)c2)C1=O`, the “% Inhibition” value is reported as -9% and the Z score was 1.12.
On to `COc1cc(C(=O)NC2CCN(C)C2c2ccc(F)cc2)on1` (stereo not given), for which the “% Inhibition” value is -2% and the Z score was 0.18.
In the case of `O=C(NCC1CCCCC1)c1ccoc1`, the “% Inhibition” value is 10% and the Z score is -1.35.
With `Cc1cc(N2CCC(C)CC2)n2nc(CN3CCN(C(C)C)CC3)nc2n1`, the “% Inhibition” value is given as 7% and the Z score is given as -0.96.
The like results for `CCc1nc(N2CCN(C(C)C)[C@@H](CC)C2)no1` were, in that order, -15% and 1.89.
For `Cc1cc(C)cc(NC(=O)[C@@H]2CCN(S(C)(=O)=O)c3ccccc3O2)c1`, the “% Inhibition” value was 9% and the Z score is -1.15.
As to `O=C(NCc1ncc(C(F)(F)F)cn1)c1ccc(O)nc1`, the “% Inhibition” value is listed as -7% and the Z score is given as 0.74.
Turning to `Cc1nn(-c2nc(-c3ccc(F)cc3)cs2)c(C)c1CC(=O)Nc1ccc(F)cc1`, the “% Inhibition” value was -1% and the Z score is 0.14.
The matching figures for `CC(C)CNC(=O)/C(=C/c1cccc(Oc2ccccc2)c1)NC(=O)c1ccc(Cl)cc1`: 0% and 0.02.
Take `CCn1c2ccccc2c2ccc(N)nc21`: the “% Inhibition” value was determined as 4% and the Z score is reported as -0.71.
On to `Cc1ccc2nc(COc3cccc(C(=O)N4CCC[C@H]4C(C)(C)O)c3)cn2c1`, for which the “% Inhibition” value was -7% and the Z score is on record as 0.95.
For the compound `CC1(C)COc2cc(-c3ccc(S(=O)(=O)NCCO)cc3)ccc21`, the “% Inhibition” value is -5% and the Z score came to 0.86.
In the case of `O=S(=O)(C[C@H]1CCCO1)NCCn1cnnc1C1CC1`, the “% Inhibition” value is 0% and the Z score was -0.05.
The like results for `COc1ccc(Cc2nc(C3CCC3)n(-c3cccnc3)n2)cc1` were, in that order, -2% and 0.3.
Consider `O=C(Nc1ccc(C(F)(F)F)cc1)N1CCC[C@H](Nc2ccc3c(c2)OCCO3)C1`, for which the “% Inhibition” value is 7% and the Z score was -0.78.
`O=C(NCCc1nccs1)N1CCC([C@@H]2CCCO2)CC1`: the “% Inhibition” value was -5% and the Z score turned out to be 0.62.
For `CCc1ccc(C(=O)N[C@H](c2cccc(C)n2)C2CC2)s1`, the “% Inhibition” value was -10% and the Z score was found to be 1.48.
Take `Cc1noc(C2CN(Cc3ccc(Cl)cc3Cl)C2)n1`: the “% Inhibition” value is -4% and the Z score is 0.83.
With `CC(C)=CCN1C[C@@H]2CC[C@H]1CN(C(=O)c1c[nH]c3ncnn3c1=O)C2`, the “% Inhibition” value is given as -18% and the Z score was 1.74.
The like results for `O=C(NCc1nnc2n1CCC2)c1cc(-c2ccsc2)n[nH]1` were, in that order, -22% and 2.68.
Take `O=C(c1ccsc1)N1CCN(c2ccccn2)CC1`: the “% Inhibition” value was 0% and the Z score was -0.03.
In the case of `Cc1ccnc2nc(C(=O)N3CCOC[C@@]3(C)C3CC3)nn12`, the “% Inhibition” value is -5% and the Z score was found to be 0.78.
On to `CS(=O)(=O)C[C@H](O)c1cc2n(n1)CCN(Cc1nc3ccccc3[nH]1)C2`, for which the “% Inhibition” value was found to be 1% and the Z score is given as -0.19.
The like results for `Cn1cc(Br)cc1C(=O)NCCCO` were, in that order, -8% and 1.29.
As to `Cn1cccc1C(=O)C(=O)NCc1ccco1`, the “% Inhibition” value is -14% and the Z score is 1.33.
In the case of `CCc1nn(C)c2c(=O)n(Cc3ccc4nonc4c3)cnc12`, the “% Inhibition” value was 0% and the Z score was 0.03.
As to `CN1c2cccnc2CN(Cc2cccnc2)CC[C@H]1CO`, the “% Inhibition” value is reported as 25% and the Z score is -2.81.
The like results for `O=C(Cn1[nH]c2ccccc2c1=O)NCCOCCO` were, in that order, -11% and 1.82.
In the case of `Cc1nnc(NC(=O)C2(CF)CCC2)s1`, the “% Inhibition” value was -5% and the Z score amounted to 0.65.
With `Cc1cccc2c1O[C@H](c1nc(C3CCOCC3)no1)C2`, the “% Inhibition” value was -3% and the Z score came out at 0.33.
The like results for `CCCS(=O)(=O)NCCn1nc(-c2ccncc2)c2c1CCCC2` were, in that order, -4% and 0.51.
In the case of `O=C(Nc1ccc2c(c1)OCO2)c1cnc2ccccc2n1`, the “% Inhibition” value was -13% and the Z score amounted to 1.72.
As to `O=C(c1ccc(-c2ccco2)[nH]c1=O)N1CCC(n2cccn2)CC1`, the “% Inhibition” value was determined as 0% and the Z score is on record as -0.02.
On to `CC(C)n1ccnc1CN1CC[C@H](CNC(=O)c2ccsc2)C1`, for which the “% Inhibition” value is reported as -11% and the Z score was 1.88.
With `CC(C)CNC(=O)c1[nH]cnc1C(=O)N1CCC(Cc2ccccc2)CC1`, the “% Inhibition” value was 31% and the Z score was -3.65.
On to `FC(F)(F)c1nc(NCCN2CCCOCC2)c2nc[nH]c2n1`, for which the “% Inhibition” value is -14% and the Z score was determined as 2.11.
In the case of `Cc1nnsc1C(=O)NC[C@H](O)Cn1ccccc1=O`, the “% Inhibition” value came out at 23% and the Z score is recorded as -2.94.
For the compound `Cn1nnnc1CCNC(=O)N1CCC2(C=Cc3ccccc3O2)CC1`, the “% Inhibition” value was -10% and the Z score stood at 0.93.
As for `CCCc1nc2nc(C)nn2c(O)c1NC(=O)Nc1cccc(F)c1`, the “% Inhibition” value is recorded as 0% and the Z score is listed as -0.01.
Consider `OC1(c2ccc(-c3cnc4c(c3)CCCO4)cc2)CCC1`, for which the “% Inhibition” value is recorded as -20% and the Z score is recorded as 3.25.
Take `CC(C)c1nc(C2CN(C(=O)Nc3cc(F)cc(F)c3)C2)n(C)n1`: the “% Inhibition” value is given as -6% and the Z score was 0.96.
Take `C[C@@H](O)CNC(=O)NC1CCC(Cc2ccccc2)C1` (stereo not given in full): the “% Inhibition” value is -10% and the Z score is on record as 1.05.
Take `Cc1cc(C)n(-c2ccc(C(=O)N3CCCC[C@H]3c3nc(C)no3)cc2)n1`: the “% Inhibition” value is on record as -5% and the Z score is 0.92.
`COc1cccc(Cn2cccc2CN(Cc2ccccc2)C(=O)CN(CC(C)C)C(=O)c2ccc(C(C)(C)C)cc2)c1`: the “% Inhibition” value is -23% and the Z score was determined as 3.1.
For `Cc1oc(-c2ccc3ccccc3c2)nc1CN1CCC2(CC1)CNC(=O)C2`, the “% Inhibition” value is -9% and the Z score was 1.04.
`COc1ccc(OC)c(Cc2nnc(CCC(=O)NC3CCCCC3)o2)c1`: the “% Inhibition” value is -10% and the Z score is reported as 1.38.
For the compound `C#CC(C)NC(=O)[C@@H]1CCC[C@@H]1CNC(=O)OC(C)(C)C` (stereo not given in full), the “% Inhibition” value was -10% and the Z score is given as 1.99.
Take `COc1ccc(-n2nc(C3CCCC3)nc2CCS(C)(=O)=O)cc1`: the “% Inhibition” value was 4% and the Z score was -0.82.
